# Measurements published in PubChem BioAssay AID1508642 (National Center for Advancing Translational Sciences (NCATS), 2021).
# Among all 43,000 compounds or so, about 200 (0.47%) were called active. Another 12% or so got no clear call; they are omitted. Calls come from the whole dose curve; as a rule, active = well fitted cell-killing curve with a large enough effect; inconclusive = small, poorly fitted or top-dose-only effect, or effect the other way; inactive = flat fitted curve, though single readings scatter. Some of the results follow.
# Test: Cell viability qHTS assay in S16 Pmp22-F2sN cells; note: nearly all actives have a fitted effect of over 65% in size
# Details: S16 Pmp22-F2sN Schwann cells (luciferase reporters placed in the Pmp22 gene) viability, CellTiter-Glo, 24 h; series mostly up to 57.5 µM; activity change, negative = cytotoxicity: at the top concentration
# Outline: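 Luminescence from CellTiter-Glo, read by CCD camera after a 15 min room-temperature incubation, served as the viability signal. Reporter Schwann cells (S16 Pmp22-F2sN) had been treated with pin-transferred compounds for 24 h at 37C.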
# % is set by controls: 0 for no effect and ±100 for the full control effect.
row,Structure (SMILES),"activity change, negative = cytotoxicity"
1,COc1ccc(Cl)cc1N(C)C(=O)Cc1noc2ccc(C)cc12,inactive: 2.73%
2,CCC(C)NC(=O)c1ccc2c(c1)N=C(C)c1cc(C)ccc1S2 (configuration not stated),inactive: -16.6%
3,Cc1ccc2c(=O)cc(C(=O)Nc3c(C(=O)c4ccccc4)oc4ccccc34)oc2c1C,inactive: 0.457%
4,CC(C)(C)OC(=O)N1CCC(c2c(C(=O)NCc3ccccn3)cnn2-c2ccc(F)cc2)CC1,inactive: -2.58%
5,COc1ccc2c(c1)c1c(c(=O)n(-c3cccc(C)c3)c(=O)n1CC(=O)N1CCCC1)n2C,inactive: -16.7%
6,Cc1cc(C)c2c(=O)cc(C(=O)Nc3ccc(S(=O)(=O)Nc4onc(C)c4C)cc3)oc2c1,inactive: -1.22%
7,COc1ccc(-n2nnc(C(=O)Nc3ccccc3F)c2N)cc1,inactive: -0.784%
8,CCc1ccccc1N(c1nc(-c2ccc(OC)c(OC)c2)no1)c1nc(-c2ccc(OC)c(OC)c2)no1,inactive: -0.454%
9,CCN1C(=O)c2ccccc2Sc2ccc(NC(=O)Cc3ccc(OC)cc3)cc21,inactive: -21.4%
10,CCCn1cc(S(=O)(=O)c2cc(C)ccc2C)c(=O)c2cc(F)c(N3CCCCCC3)cc21,inactive: -11.1%
11,COc1ccc(-c2cc(-c3ccccc3)nc3c2COc2ccccc2-3)cc1,inactive: 27.5%
12,CC(C)CC(=O)Nc1nnc2n1CCS2,inactive: -4.15%
13,CCOc1ccc(NCc2cccn2-c2nnc(N3CCC(C(=O)NCc4cccc(OC)c4)CC3)s2)cc1,inactive: -20.8%
14,COc1ccc(CNC(=O)C2CCN(S(=O)(=O)c3ccc4nc5c(c(C(=O)O)c4c3)CC(C)CC5)CC2)cc1 (configuration not stated),inactive: -1.42%
15,CCc1ccc(NC(=O)C2CCCN(S(=O)(=O)c3cccc4nonc34)C2)cc1 (configuration not stated),inactive: 30%
16,CCOc1ccc(NC(=O)Cn2cnc3c(oc4ccccc43)c2=O)cc1,inactive: 0.719%
17,CN1C(=O)Cc2cc(S(=O)(=O)CCC(=O)N3CCN(c4cccc(Cl)c4)CC3)ccc21,inactive: -2%
18,COc1cccc(NS(=O)(=O)c2cc3c4c(c2)C(C)C(=O)N4CCC3)c1 (configuration not stated),inactive: -2.71%
19,Cc1cc(C)c(NC(=O)Cn2nnc(C(=O)Nc3ccc(F)cc3F)c2N)c(C)c1,inactive: -2.49%
20,COc1ccc(-c2cc(OC(=O)c3cccc(C)c3)c3c(C)oc(C)c3c(=O)c2)cc1,inactive: 9.72%
21,CC(=O)Nc1ccc(NC(=O)c2c(C)nn(-c3ccccc3)c2-n2cccc2)cc1,inactive: -14.4%
22,Cc1ccc(CNC(=O)c2ccc3c(c2)nc2n3CCCC2)cc1,inactive: -4.7%
23,Cc1cc(C)n(-c2nc(C)c(C)c(=O)n2CC(=O)Nc2ccc(Cl)c(Cl)c2)n1,inactive: 4.93%
24,COc1ccc(-c2nnc(SCC(=O)Nc3cccc(Cl)c3C)nc2-c2ccc(OC)cc2)cc1,inactive: 0.546%

row,Structure (SMILES),"activity change, negative = cytotoxicity"
1,COc1ccc(NC(=O)CCNS(=O)(=O)c2ccc3c(c2)CCN3C(=O)C2CC2)cc1Cl,inactive: -24.8%
2,CCOC(=O)c1cc(-c2ccccc2)n(CCCC(=O)Nc2ccc(C)cc2Cl)c1C,inactive: -3.41%
3,COc1cccc(NC(=O)c2nnn(Cc3ccc(OC)c(Br)c3)c2N)c1,inactive: -6.11%
4,COc1cc(NC(=O)c2cc3ccc4cccnc4c3[nH]2)cc(OC)c1OC,inactive: 5.19%
5,COc1ccccc1N1CCN(S(=O)(=O)CCNC(=O)C2CC(=O)N(c3ccccc3)C2)CC1 (configuration not stated),inactive: -0.473%
6,CC(Nc1ccc(-c2nc(-c3ccco3)no2)cc1[N+](=O)[O-])c1ccccc1 (configuration not stated),inactive: 6.56%
7,CC(C)(C)C(=O)Nc1cccc(C(=O)OCc2cc(=O)n3nc(C4CC4)sc3n2)c1,inactive: 4.93%
8,Cc1ccccc1NC(=O)CCNC(=O)Cn1ccc2ccccc2c1=O,inactive: 7.89%
9,Cc1ccc(NC(=O)N2CCN(Cc3nc4ccc(C)cc4o3)CC2)c(Cl)c1,inactive: 24.1%
10,CCOC(=O)c1ccc(NC(=O)CSc2nc(-c3cccs3)cc(C(F)(F)F)c2C#N)cc1,inactive: 3.41%
11,CCS(=O)(=O)c1nc(S(=O)(=O)c2ccc(C)cc2)c(NCC(C)C)s1,inactive: -9.96%
12,CCOC(=O)N1CCc2c(sc(NCc3sccc3C)c2C(=O)Nc2cc(Cl)ccc2OC)C1,inactive: 2.46%
13,CCC(=O)N1CCc2cc(CNC(=O)c3ccc(C#N)cc3)ccc21,inactive: 10.7%
14,CC(NC(=O)c1cc2ccccc2o1)c1ccccc1 (configuration not stated),inactive: 4.25%
15,CCc1ccc(S(=O)(=O)c2cn(C)c3cc(F)c(F)cc3c2=O)cc1,inactive: -17.7%
16,Cc1ccc(NC(=O)Cn2c(-c3nonc3N)nc3ccccc32)cc1C,inactive: 0.548%
17,COc1ccccc1CN1CCN(C2CCN(C(=O)Nc3ccccc3)CC2)C(=O)C1=O,inactive: 2.68%
18,CCOc1ccc(NC(=O)CSC2=Nc3ccccc3C3=NC(Cc4ccccc4)C(=O)N23)cc1 (configuration not stated),inactive: -1.64%
19,COc1ccc(-c2nc3sc(CCNC(=O)C(=O)Nc4ccc(C)c(F)c4)c(C)n3n2)cc1,inactive: 1.26%
20,CCCn1nc(NC(=O)c2cccc(Cl)c2)c2cc3cccc(C)c3nc21,inactive: 2.06%
21,COc1ccc(Nc2nc3ccccc3nc2NS(=O)(=O)c2ccc(Cl)cc2)cc1OC,inactive: -25.1%
22,COc1ccccc1CCNC(=O)C(=O)NCC(c1ccco1)S(=O)(=O)c1ccccc1 (configuration not stated),inactive: -1.27%
23,CC(=O)Nc1ccc(NC(=O)c2cnn(-c3ccccc3)c2C2CCN(C(=O)OC(C)(C)C)CC2)cc1,inactive: 1.92%
